Hit rate of the full screen: of about 310,000 compounds, about 11,000 (3.5%) were called active. The shares of active, inactive and inconclusive entries below differ from those in the screen. Calls come from the whole dose curve; as a rule, active = well fitted inhibition curve with a large enough effect; inconclusive = small, poorly fitted or top-dose-only effect, or effect the other way; inactive = flat fitted curve, though single readings scatter. No potency is given beside an inconclusive call; the fits are too rough.
Test: VP16 counterscreen qHTS for inhibitors of ROR gamma transcriptional activity;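 note: Gal4-VP16 expression switched on by copper sulfate through the metallothionein promoter; nearly all actives have a fitted effect of over 50% in size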
Details: Drosophila S2 Gal4-VP16 UAS-luciferase, luminescence, 20 h; activity, negative = inhibition: at 53.6 µM (top of the series)
% is set by controls: 0 for no effect and ±100 for the full control effect; potency is the fitted concentration of half-maximal effect; tags give direction and shape of the fitted curve.

| SMILES | Potency | activity, negative = inhibition |
| --- | --- | --- |
| CC(=O)N1CCN(c2ccc(NC(=O)c3ccco3)cc2Cl)CC1 | inconclusive [activator, partial curve] |  |
| COc1ccc(-c2csc(CCN3N=C(C)CC3=O)n2)cc1 |  | inactive: -7.29% |
| C/C(=N/NC(=O)c1nnn(-c2nonc2N)c1COc1ccccc1)c1ccccc1Cl | inconclusive [inhibitor, single point] |  |
| COc1ccc(OCC(O)Cn2c(Nc3ccccc3)nc3c2c(=O)n(C)c(=O)n3C)cc1 (centres undefined) | inconclusive [inhibitor, single point] |  |
| COc1ccc(C(O)(C2CCCCC2)C(CN2CCCC2)c2ccccc2)cc1 (centres undefined) |  | inactive: -9.79% |
| O=C(NCCc1ccccc1)C1CCN(S(=O)(=O)N2CCC3(CC2)OCCO3)CC1 | inconclusive [activator, single point] |  |
| CN1Cc2sc(NC(=S)NC(=O)c3ccccc3)c(C#N)c2CC1(C)C | inconclusive [inhibitor, single point] |  |
| Cc1ccc(Cn2c(O)c(N=O)c3ccccc32)cc1 | inconclusive [inhibitor, single point] |  |
| O=C(CC1CCCC1)Nc1ccc2c(c1)CCC2 | inconclusive [inhibitor, single point] |  |
| CC(C)[C@H](NC(=O)c1ccccc1Cl)C(=O)Nc1nc(-c2ccccn2)cs1 | inconclusive [inhibitor, single point] |  |
| CCOc1ccc(C(=O)CC(NCc2cccs2)C(=O)O)cc1 (centres undefined) | active: 12.6 µM |  |
| O=C(CCl)N(CCc1ccccc1)CCc1ccccc1 | inconclusive [inhibitor, single point] |  |
| CC(C)CC(=O)NC(NC(=S)Nc1sc2c(c1C#N)CCCC2)C(Cl)(Cl)Cl (centres undefined) | inconclusive [inhibitor, single point] |  |
| CC(=O)N1CCC2(CC1)C/C(=N\NC(=S)Nc1ccc(C)cc1)c1cc(O)ccc1O2 | inconclusive [inhibitor, single point] |  |
| COc1ccc(C(=O)SC2=NCCS2)cc1 | inconclusive [inhibitor, single point] |  |
| Cc1cc(C)cc(OCC(=O)OC/C(O)=C(\C#N)c2nc3ccccc3[nH]2)c1 | active: 15.8 µM |  |
| CCn1nc(C)cc1C(=O)Sc1cccc(Cl)c1 | inconclusive [inhibitor, single point] |  |
| CCN(CC)CCOC(=O)c1ccc(NC(=O)c2ccc(Cl)c(S(=O)(=O)N3CCCCCC3)c2)cc1 | inconclusive [inhibitor, single point] |  |
| CCOc1cc(C(=O)Nc2ccc3c(c2)OCO3)ccc1OC(F)F | inconclusive [inhibitor, single point] |  |
| CCOc1cccc(-c2c(C(=O)N/N=C/c3cccs3)nnn2-c2nonc2N)c1 | active: 11.2 µM |  |
| Cc1ccc(-n2cnc3cc(NCc4cccs4)ccc32)cc1 | inconclusive [inhibitor, single point] |  |
| O=C(NCC12CC3CC(CC(C3)C1)C2)c1cc2n(n1)C(C(F)(F)F)CC(c1ccco1)N2 (centres undefined) | inconclusive [inhibitor, single point] |  |
| CC(=O)N1c2ccc(S(=O)(=O)N(C)C3CCCCC3)cc2CC1C (centres undefined) |  | inactive: -2.86% |
| CNc1nc(SCc2ccccc2Cl)nc2c1CCCC2 | inconclusive [inhibitor, single point] |  |
| CCOC(CNC(=O)CN1C(=O)COc2ccc(S(=O)(=O)N3CCCC3)cc21)OCC |  | inactive: -3.77% |

| SMILES | Potency | activity, negative = inhibition |
| --- | --- | --- |
| c1ccc2c(Oc3ccc4c(c3)OCO4)nncc2c1 | inconclusive [inhibitor, single point] |  |
| CCn1c2ccccc2c2cc(NC(=O)CC(C)=O)ccc21 |  | inactive: -1.95% |
| CCCC(=O)Nc1cccc(-c2nc3ccccc3c(=O)o2)c1 | inconclusive [inhibitor, single point] |  |
| O=NN(CCc1ccncc1)c1ccc(OCc2ccccc2)cc1 | active: 6.31 µM |  |
| Cc1ccc(C2=N/C(=C\c3cccc(F)c3)C(=O)O2)cc1 |  | inactive: -4.01% |
| OCCCNc1c2ccccc2nc2ccccc12 | inconclusive [inhibitor, single point] |  |
| CCOc1ccc(C(C)NC(=S)NCc2ccc(F)cc2)cc1 (centres undefined) | active: 3.16 µM |  |
| Cc1ccc2c(c1)C1CN(C)CCC1N2C(=S)NC(=O)c1ccc(Cl)cc1Cl (centres undefined) | active: 0.891 µM |  |
| Cc1csc(NC(=O)CSc2ncnc3c2cnn3-c2ccccc2Cl)n1 | inconclusive [inhibitor, single point] |  |
| COc1cccc(N=Nc2c(C)[nH]n(-c3ccccc3)c2=O)c1 | inconclusive [inhibitor, single point] |  |
| O=C(NCc1ccc(Cl)cc1)c1cc2ccccc2oc1=O |  | inactive: -11.8% |
| CCCCn1c(NC(=O)c2ccccc2Cl)c(C#N)c2nc3ccccc3nc21 | inconclusive [inhibitor, single point] |  |
| Cc1cc(C)cc(-n2c(C)cc(/C=N/NC(=O)c3cccc([N+](=O)[O-])c3C)c2C)c1 | active: 4.47 µM |  |
| Cc1ccc(CN(Cc2ccccc2)C(=S)NCC(=O)NCc2cccnc2)o1 |  | inactive: 6.81% |
| Cc1cccc(Nc2nc3ccccc3s2)c1C | inconclusive [inhibitor, single point] |  |
| CCOC(=O)c1c(S(=O)(=O)N2CCC(C)CC2)c(C)n(C)c1C |  | inactive: -0.265% |
| CC1(c2cnc(Nc3ccccc3)s2)CCC(=O)O1 (centres undefined) | inconclusive [activator, single point] |  |
| CCOc1cc2[nH]c(=S)n(CC3CCCN3CC)c(=O)c2cc1OCC (centres undefined) |  | inactive: 2.64% |
| Cc1ccccc1CSc1nnc(NC(=O)C2COc3ccccc3O2)s1 (centres undefined) | inconclusive [inhibitor, single point] |  |
| COc1cc(NC(=O)c2ccccc2)c(OC)cc1NC(=O)CSc1[nH]c(=O)cc(C)c1C#N |  | inactive: -13.5% |
| CS(=O)(=O)Nc1ccc(C2=NN(S(=O)(=O)c3ccc(F)cc3)C(c3ccco3)C2)cc1 (centres undefined) | inconclusive [inhibitor, single point] |  |
| Cc1c(Cl)cccc1NC(=S)N1CCC(C(N)=O)(N2CCCCC2)CC1 |  | inactive: 8.42% |
| COc1ccc(C(=O)N2CCC3(CCCN(c4ncccn4)C3)CC2)cc1 |  | inactive: -12.2% |
| O=C(NCc1ccco1)C(=O)NCC1OCCN1S(=O)(=O)c1ccc(Cl)cc1 (centres undefined) |  | inactive: 1.01% |
| CCOc1c(Br)cc(CNc2ccc(N3CCN(C(C)=O)CC3)cc2)cc1OC | inconclusive [inhibitor, single point] |  |

| SMILES | Potency | activity, negative = inhibition |
| --- | --- | --- |
| COc1cc(NC(=O)c2cnc(N)o2)cc(C(=O)Nc2cccc(C(F)(F)F)c2)c1 | inconclusive [inhibitor, single point] |  |
| CC(=O)c1cccc(NC(=O)CCn2c(=O)oc3ccccc32)c1 |  | inactive: -3.77% |
| O=C(CCCCN1CCCCC1)c1ccc2c(c1)Cc1ccccc1-2 | inconclusive [inhibitor, single point] |  |
| Oc1c(Br)cc(Br)cc1C=Nc1ccc2c(c1)OCCO2 | inconclusive [inhibitor, single point] |  |
| Cc1c(O)c2c3c(cccc3c1O)C(=O)N(c1ccccc1)C2=O | inconclusive [inhibitor, single point] |  |
| CC(=O)N(CN1C(=O)c2ccccc2C1=O)c1ccccc1 |  | inactive: -6.41% |
| COc1ccccc1CN(Cc1nc2ccccc2c(=O)[nH]1)C(=O)Nc1ccccc1 | inconclusive [inhibitor, single point] |  |
| O=C(Nc1ccc(Cl)cc1)Nc1nnc(CSCc2ccccc2Cl)s1 |  | inactive: -21.3% |
| O=[N+]([O-])c1cc(CN2CCC(O)CC2)ccc1Cl |  | inactive: 4.84% |
| O=C(Nc1nc2c(s1)CCCC2)c1ccc(Br)o1 | inconclusive [inhibitor, single point] |  |
| COCCNC(=O)Cn1cnc2sc(C)c(S(=O)(=O)N3CCN(c4ccccc4OC)CC3)c2c1=O |  | inactive: -10.1% |
| C/C(=N\NC(=O)c1cc(C)[nH]n1)c1cccs1 | active: 10 µM |  |
| Cc1c(C(=O)NCc2ccoc2)oc2ccc3c(c12)C(=O)CC(C)(C)O3 | inconclusive [inhibitor, single point] |  |
| CC1=CC2=NC(=O)/C(=C\c3cccn3CCOc3cccc(C)c3)C(=N)N2O1 | inconclusive [inhibitor, single point] |  |
| O=C(COC(=O)c1ccc2[nH]c3c(c2c1)CCCC3)Nc1ccccc1Cl |  | inactive: -9.71% |
| COc1ccc(C(C)=O)cc1CSc1nnc(Nc2ccc(C)cc2)s1 | inconclusive [activator, single point] |  |
| O=C(Nc1ccccc1C(F)(F)F)c1cc(-c2ccc(O)cc2)on1 | inconclusive [inhibitor, single point] |  |
| CCOc1ccc(Br)cc1S(=O)(=O)Nc1ncn[nH]1 |  | inactive: 0% |
| COc1cccc(Nc2ncc3nc(C)c(=O)n(C4CC4)c3n2)c1 |  | inactive: 22.6% |
| Cc1ccccc1SCC(=O)N1CCN(c2ccc(C(F)(F)F)cn2)CC1 | inconclusive [inhibitor, single point] |  |
| CCC/C(=N\NC(=O)c1ccco1)c1ccc(Cl)s1 | active: 17.8 µM |  |
| O=C(NCCc1ccccc1)/C(=C\c1cccc([N+](=O)[O-])c1)NC(=O)c1ccco1 |  | inactive: 0.327% |
| Cc1c(/N=C(\[O-])Nc2ccc(Br)cc2)sn[n+]1C | inconclusive [inhibitor, single point] |  |
| CCOc1cc(S(=O)(=O)Nc2ccc(Cl)cn2)ccc1F | inconclusive [inhibitor, single point] |  |

From PubChem BioAssay AID2546 (National Center for Advancing Translational Sciences (NCATS), 2010)
